Results published in a collection of fitness landscapes (doi:10.1126/science.1257360).
This is one part of the list.

B1: PhoQ; a variant is named by its letters at X, in order, P23837 (parent)
chain: MKKLLRLFFPLSLRVRFLLATAAVVLVLSLAYGMVALIGYSVSFDKTTFRLLRGESNLFYTLAKWENNKLHVELPENIDKQSPTMTLIYDENGQLLWAQRDVPWLMKMIQPDWLKSNGFHEIEADVNDTSLLLSGDHSIQQQLQEVREDDDDAEMTHSVAVNVYPATSRMPKLTIVVVDTIPVELKSSYMVWSWFIYVLSANLLLVIPLLWVAAWWSLRPIEALAKEVRELEEHNRELLNPATTRELTSLVRNLNRLLKSERERYDKYRTTLTDLTHSLKTPLXXLQXXLRSLRSEKMSVSDAEPVMLEQISRISQQIGYYLHRASMRGGTLLSRELHPVAPLLDNLTSALNKVYQRKGVNISLDISPEISFVGEQNDFVEVMGNVLDNACKYCLEFVEISARQTDEHLYIVVEDDGPGIPLSKREVIFDRGQRVDTLRPGQGVGLAVAREITEQYEGKIVAGESMLGGARMEVIFGRQHSAPKDE

Variants of: B1
Assay: enrichment ratio after two sorts for PhoP signalling (ratio (wild type AVST 3.29)); higher = more functional
Settings: with PhoP (E. coli)

Q: For KMNL, which enrichment ratio is on record?
A: Its enrichment ratio is ≤ 0.25.

Q: How did the enrichment ratio turn out when HAAL was run?
A: Its enrichment ratio is ≤ 0.25.

Q: With WPSS as the variant, how does the enrichment ratio read?
A: The enrichment ratio was ≤ 0.25.

Q: How did the enrichment ratio turn out when EHTP was run?
A: Its enrichment ratio is ≤ 0.25.

Q: How did the enrichment ratio turn out when IVNH was run?
A: The enrichment ratio was ≤ 0.25.

Q: How did the enrichment ratio turn out when THDI was run?
A: Its enrichment ratio is ≤ 0.25.

Q: LSLE was tested. Which enrichment ratio did it give?
A: Its enrichment ratio is 2.83.

Q: AKSV was tested. Which enrichment ratio did it give?
A: The enrichment ratio was 4.8.

Q: For KDYD, which enrichment ratio is on record?
A: Its enrichment ratio is ≤ 0.25.

Q: DNAF was tested. Which enrichment ratio did it give?
A: The enrichment ratio was ≤ 0.25.

Q: PFSM was tested. Which enrichment ratio did it give?
A: The enrichment ratio was 0.353.

Q: ALYV was tested. Which enrichment ratio did it give?
A: The enrichment ratio was ≤ 0.25.

Q: With YKWK as the variant, how does the enrichment ratio read?
A: Its enrichment ratio is ≤ 0.25.

Q: How did the enrichment ratio turn out when EIQH was run?
A: Its enrichment ratio is ≤ 0.25.

Q: Which enrichment ratio does the source give for DNLH here?
A: The enrichment ratio was ≤ 0.25.

Q: How did the enrichment ratio turn out when NWPA was run?
A: Its enrichment ratio is ≤ 0.25.

Q: How did the enrichment ratio turn out when RHHF was run?
A: The enrichment ratio was ≤ 0.25.

Q: Which enrichment ratio does the source give for SIVS here?
A: Its enrichment ratio is 4.88.

Q: Which enrichment ratio does the source give for LEDF here?
A: Its enrichment ratio is ≤ 0.25.

Q: How did the enrichment ratio turn out when YYNN was run?
A: Its enrichment ratio is ≤ 0.25.

Q: For PIYG, which enrichment ratio is on record?
A: The enrichment ratio was ≤ 0.25.

Q: How did the enrichment ratio turn out when NQYA was run?
A: The enrichment ratio was ≤ 0.25.

Q: Which enrichment ratio does the source give for PICQ here?
A: Its enrichment ratio is ≤ 0.25.

Q: For NQQT, which enrichment ratio is on record?
A: The enrichment ratio was ≤ 0.25.

Q: How did the enrichment ratio turn out when WMVR was run?
A: The enrichment ratio was ≤ 0.25.

Q: Which enrichment ratio does the source give for VNFQ here?
A: Its enrichment ratio is ≤ 0.25.

Q: With APPT as the variant, how does the enrichment ratio read?
A: Its enrichment ratio is ≤ 0.25.

Q: For RMLM, which enrichment ratio is on record?
A: Its enrichment ratio is ≤ 0.25.

Q: How did the enrichment ratio turn out when RMEF was run?
A: Its enrichment ratio is ≤ 0.25.

Q: How did the enrichment ratio turn out when QCCW was run?
A: Its enrichment ratio is ≤ 0.25.

Q: For YWRL, which enrichment ratio is on record?
A: The enrichment ratio was ≤ 0.25.

Q: With VHKL as the variant, how does the enrichment ratio read?
A: The enrichment ratio was ≤ 0.25.

Q: Which enrichment ratio does the source give for FMDR here?
A: Its enrichment ratio is ≤ 0.25.

Q: For GGKS, which enrichment ratio is on record?
A: Its enrichment ratio is ≤ 0.25.

Q: ARYN was tested. Which enrichment ratio did it give?
A: The enrichment ratio was ≤ 0.25.

Q: SFLK was tested. Which enrichment ratio did it give?
A: Its enrichment ratio is ≤ 0.25.

Q: YELL was tested. Which enrichment ratio did it give?
A: The enrichment ratio was 0.905.

Q: LMET was tested. Which enrichment ratio did it give?
A: Its enrichment ratio is ≤ 0.25.

Q: For PNDW, which enrichment ratio is on record?
A: Its enrichment ratio is ≤ 0.25.

Q: For QDRI, which enrichment ratio is on record?
A: Its enrichment ratio is ≤ 0.25.

Q: How did the enrichment ratio turn out when PRYW was run?
A: Its enrichment ratio is ≤ 0.25.

Q: Which enrichment ratio does the source give for AGLC here?
A: The enrichment ratio was 12.4.

Q: Which enrichment ratio does the source give for EELH here?
A: The enrichment ratio was ≤ 0.25.

Q: With YHLP as the variant, how does the enrichment ratio read?
A: Its enrichment ratio is ≤ 0.25.

Q: For PYAH, which enrichment ratio is on record?
A: Its enrichment ratio is ≤ 0.25.

Q: With EAGE as the variant, how does the enrichment ratio read?
A: The enrichment ratio was ≤ 0.25.

Q: With AKHC as the variant, how does the enrichment ratio read?
A: Its enrichment ratio is ≤ 0.25.

Q: Which enrichment ratio does the source give for TDMC here?
A: Its enrichment ratio is 3.92.

Q: For QAIA, which enrichment ratio is on record?
A: Its enrichment ratio is ≤ 0.25.

Q: PHTT was tested. Which enrichment ratio did it give?
A: The enrichment ratio was ≤ 0.25.

Q: Which enrichment ratio does the source give for REIK here?
A: Its enrichment ratio is ≤ 0.25.

Q: How did the enrichment ratio turn out when RQYS was run?
A: Its enrichment ratio is ≤ 0.25.

Q: Which enrichment ratio does the source give for PYVN here?
A: The enrichment ratio was ≤ 0.25.

Q: For LNKN, which enrichment ratio is on record?
A: Its enrichment ratio is ≤ 0.25.

Q: How did the enrichment ratio turn out when GVYK was run?
A: Its enrichment ratio is ≤ 0.25.

Q: With NRFC as the variant, how does the enrichment ratio read?
A: Its enrichment ratio is ≤ 0.25.

Q: MRVD was tested. Which enrichment ratio did it give?
A: The enrichment ratio was ≤ 0.25.

Q: How did the enrichment ratio turn out when YECI was run?
A: Its enrichment ratio is 0.32.

Q: For WRAA, which enrichment ratio is on record?
A: The enrichment ratio was ≤ 0.25.

Q: Which enrichment ratio does the source give for MMSK here?
A: The enrichment ratio was ≤ 0.25.

Q: How did the enrichment ratio turn out when AVPY was run?
A: The enrichment ratio was ≤ 0.25.

Q: With DVIL as the variant, how does the enrichment ratio read?
A: The enrichment ratio was ≤ 0.25.

Q: With KTGI as the variant, how does the enrichment ratio read?
A: The enrichment ratio was ≤ 0.25.

Q: Which enrichment ratio does the source give for QTNP here?
A: The enrichment ratio was ≤ 0.25.

Q: With GATF as the variant, how does the enrichment ratio read?
A: Its enrichment ratio is ≤ 0.25.

Q: With IESF as the variant, how does the enrichment ratio read?
A: Its enrichment ratio is ≤ 0.25.

Q: With LCWM as the variant, how does the enrichment ratio read?
A: The enrichment ratio was ≤ 0.25.

Q: APNS was tested. Which enrichment ratio did it give?
A: The enrichment ratio was ≤ 0.25.

Q: How did the enrichment ratio turn out when VTTS was run?
A: Its enrichment ratio is ≤ 0.25.

Q: For IIQW, which enrichment ratio is on record?
A: Its enrichment ratio is ≤ 0.25.

Q: How did the enrichment ratio turn out when QDTT was run?
A: Its enrichment ratio is ≤ 0.25.

Q: With VHYM as the variant, how does the enrichment ratio read?
A: Its enrichment ratio is ≤ 0.25.

Q: KHAF was tested. Which enrichment ratio did it give?
A: The enrichment ratio was ≤ 0.25.

Q: With SFMQ as the variant, how does the enrichment ratio read?
A: The enrichment ratio was 1.15.

Q: How did the enrichment ratio turn out when ILKY was run?
A: The enrichment ratio was ≤ 0.25.

Q: For SSWA, which enrichment ratio is on record?
A: The enrichment ratio was ≤ 0.25.

Q: How did the enrichment ratio turn out when TCEG was run?
A: The enrichment ratio was ≤ 0.25.

Q: With EQGI as the variant, how does the enrichment ratio read?
A: The enrichment ratio was ≤ 0.25.

Q: Which enrichment ratio does the source give for MCQL here?
A: Its enrichment ratio is ≤ 0.25.

Q: How did the enrichment ratio turn out when VMQI was run?
A: The enrichment ratio was ≤ 0.25.

Q: How did the enrichment ratio turn out when NGLA was run?
A: The enrichment ratio was ≤ 0.25.

Q: NRVC was tested. Which enrichment ratio did it give?
A: Its enrichment ratio is ≤ 0.25.

Q: EDDF was tested. Which enrichment ratio did it give?
A: Its enrichment ratio is ≤ 0.25.

Q: YSKS was tested. Which enrichment ratio did it give?
A: Its enrichment ratio is ≤ 0.25.
